Source: the antibiotic and cytotoxicity screens of Wong et al. (2023)
The list shows a part of the results.

These molecules were tested on HepG2 (assay: cytotoxicity call (relative viability < 0.9)). Details: 10 µM.

Structure (SMILES)	cytotoxicity call
C[C@@H]1CN([C@H](C)CO)C(=O)c2cccc(NC(=O)C3CC3)c2O[C@@H]1CN(C)Cc1ccc(C(=O)O)cc1	inactive
CCCNC(=O)Nc1ccc2c(c1)OC[C@H](C)N(Cc1ccc(-c3ccccn3)cc1)C[C@@H](C)[C@@H](OC)CN(C)C2=O	inactive
CC(=O)Nc1ccccc1	inactive
C[N+](C)(C)CCOP(=O)([O-])OP(=O)(O)OCC1OC(n2ccc(N)nc2=O)C(O)C1O (stereo not given)	inactive
COC(=O)c1cc(C)cc(=O)o1	inactive
COc1ccc(S(=O)(=O)N(C)C[C@@H]2Oc3ccc(NC(=O)Cn4cnnn4)cc3CC(=O)N([C@H](C)CO)C[C@H]2C)cc1	inactive
O=C(C[C@@H]1C=C[C@@H](NC(=O)Nc2ccc3c(c2)OCO3)[C@H](CO)O1)NCCCN1CCOCC1	inactive
C[C@H]1CN([C@@H](C)CO)S(=O)(=O)c2ccc(C#CCN(C)C)cc2O[C@@H]1CN(C)Cc1cccnc1	inactive
CNC[C@@H]1OCCCC[C@@H](C)Oc2ccc(NC(=O)c3ccncc3)cc2C(=O)N([C@H](C)CO)C[C@H]1C	inactive
C[C@H](CO)N1C[C@H](C)[C@@H](CN(C)S(=O)(=O)c2ccc(Cl)cc2)Oc2ccc(N(C)C)cc2C1=O	inactive
C[C@H]1CN([C@@H](C)CO)C(=O)c2cc(NC(=O)C3CCCCC3)ccc2O[C@H]1CN(C)Cc1ccc(C(F)(F)F)cc1	inactive
C[C@@H]1CCCCO[C@H](CN(C)C(=O)Nc2cccc3ccccc23)[C@@H](C)CN([C@H](C)CO)C(=O)c2cc(NS(=O)(=O)c3ccc(Cl)cc3)ccc2O1	inactive
C[C@@H]1CN([C@H](C)CO)C(=O)c2cccc(NS(=O)(=O)c3cn(C)cn3)c2O[C@@H]1CN(C)S(C)(=O)=O	inactive
CC(=O)N1[C@@H]2Cn3c(ccc(-c4ccccc4)c3=O)[C@H]1[C@@H](C(=O)NCCCN1CCOCC1)[C@@H]2CO	inactive
CC(C)(O)c1ccccc1CC[C@@H](SCC1(CC(=O)O)CC1)c1cccc(/C=C/c2ccc3ccc(Cl)cc3n2)c1	inactive
COc1ccc(NC(=O)Nc2ccc3c(c2)C(=O)N([C@H](C)CO)C[C@H](C)[C@H](CN(C)C(=O)C2CCCCC2)OCCCC[C@H](C)O3)cc1	inactive
C[C@H]1CCCCO[C@@H](CN(C)C(=O)Nc2ccccc2)[C@@H](C)CN([C@@H](C)CO)C(=O)c2cc(NC(=O)NC3CCCCC3)ccc2O1	inactive
COC(=O)[C@@H](Cc1ccc(-n2cc(-c3ccc(C(=O)NO)s3)nn2)cc1)N1CC2=C[C@H](C3CC3)n3c(=O)n(C)c(=O)n3[C@@H]2[C@H]1[C@H](O)Cc1ccccc1	inactive
C[C@@H]1CN([C@@H](C)CO)C(=O)c2cc(NC(=O)Nc3ccc(F)cc3)ccc2O[C@@H](C)CCCCO[C@H]1CN(C)C(=O)C1CCCCC1	inactive
C[C@H](CO)N1C[C@H](C)[C@@H](CN(C)Cc2ccccc2)OCCCC[C@H](C)Oc2ccc(NS(=O)(=O)c3ccc(F)cc3)cc2C1=O	inactive

Structure (SMILES)	cytotoxicity call
C[C@H]1CN([C@@H](C)CO)C(=O)c2cc(NC(=O)CCN3CCOCC3)ccc2O[C@H]1CN(C)Cc1ccc2c(c1)OCO2	inactive
CSCCC(N)C(=O)O (stereo not given)	inactive
C=CCOC(=O)[C@H]1[C@@H]2C(=O)O[C@@H](c3ccccc3)[C@@H](c3ccccc3)N2[C@@H](c2ccc(OCCOC(=O)[C@H]3C[C@H]4C(=O)N[C@@H](CC(C)C)C(=O)N4[C@H]3c3cccc(OCCO)c3)cc2)[C@]12C(=O)Nc1ccc(I)cc12	inactive
N[C@H](C(=O)O)c1ccc(C(=O)O)c(C(=O)O)c1	inactive
O=C(C[C@@H]1CC[C@H]2[C@@H](COC[C@@H](O)CN2S(=O)(=O)c2ccccc2)O1)NCCN1CCCC1	inactive
C[C@@H]1CN([C@@H](C)CO)C(=O)CCCn2cc(nn2)CO[C@H]1CN(C)C(=O)Nc1ccnc(N2CCOCC2)c1	inactive
C[C@H]1CN([C@@H](C)CO)C(=O)c2cc(-c3cccc(C(=O)N(C)C)c3)cnc2O[C@@H]1CN(C)S(=O)(=O)c1ccccc1	inactive
Nc1ccccc1C(=O)C[C@H](N)C(=O)O	inactive
COc1ccc(COC[C@]23N=C4SCC(=O)N4[C@H](c4ccccc4O2)[C@H]3COC(=O)NCCCCCC(=O)NO)cc1	inactive
Cc1ccc(N(CC(=O)O)S(C)(=O)=O)cc1	inactive
CNC1CCC(c2ccc(Cl)c(Cl)c2)c2ccccc21.Cl (stereo not given)	active
CC1CCc2cc(F)cc3c(=O)c(C(=O)O)cn1c23 (stereo not given)	inactive
C[C@@H]1CN([C@H](C)CO)C(=O)c2ccccc2-c2ccccc2CO[C@@H]1CN(C)C(=O)Nc1cccc(C(F)(F)F)c1	inactive
COc1ccc(S(=O)(=O)N2C[C@@H](O)COC[C@@H]3O[C@@H](CC(=O)NCCCN4CCOCC4)CC[C@H]32)cc1	inactive
C[C@@H]1CN([C@H](C)CO)C(=O)c2cccc(NC(=O)Nc3ccccc3)c2O[C@@H]1CN(C)C(=O)Nc1cccc2ccccc12	inactive
CCCNC(=O)Nc1ccc2c(c1)C(=O)N(C)C[C@@H](OC)[C@H](C)CN(Cc1ccc(-c3ccccn3)cc1)[C@@H](C)CO2	inactive
CN(C)CCCNC(=O)C[C@@H]1CC[C@H]2[C@@H](COc3ccc(NC(=O)c4ccc5c(c4)OCO5)cc3C(=O)N2C)O1	inactive
C[C@H](CO)N1C[C@H](C)[C@@H](CN(C)C(=O)Nc2ccc3c(c2)OCO3)Oc2c(NC(=O)c3ccc(-c4nccs4)cc3)cccc2C1=O	inactive
COc1ccc(NC(=O)Nc2ccc3c(c2)C(=O)N([C@@H](C)CO)C[C@@H](C)[C@@H](CN(C)Cc2ccc(Oc4ccccc4)cc2)O3)cc1	active
COc1ccc(NC(=O)N(C)C[C@@H]2OCCCC[C@H](C)Oc3ccc(NC(=O)CCC(F)(F)F)cc3C(=O)N([C@@H](C)CO)C[C@@H]2C)cc1	inactive
